{"source": "PubChem BioAssay AID2451", "about": "(National Center for Advancing Translational Sciences (NCATS), 2010)", "note": "Screen size: about 290,000 compounds; about 2,100 (0.72%) were called active. This list was built around the results that the source calls inconclusive (neither active nor inactive); the mix of calls is not that of the screen. Calls follow the shape of the dose curve; as a rule, active = well fitted inhibition curve with a large enough effect; inconclusive = small, poorly fitted or top-dose-only effect, or effect the other way; inactive = flat fitted curve, though single readings scatter. A potency beside an inconclusive call is a rough fit, not a confirmed value. % is scaled to controls: 0 for no effect and ±100 for the full control effect; potency is read from the fitted curve at half-maximal effect; tags tell the direction and shape of the fitted curve."}
{"target": "Fructose-bisphosphate aldolase (Giardia intestinalis (strain ATCC 50803 / WB clone C6)) (UniProt A8B2U2)", "sequence (A8B2U2 whole entry, looked up)": "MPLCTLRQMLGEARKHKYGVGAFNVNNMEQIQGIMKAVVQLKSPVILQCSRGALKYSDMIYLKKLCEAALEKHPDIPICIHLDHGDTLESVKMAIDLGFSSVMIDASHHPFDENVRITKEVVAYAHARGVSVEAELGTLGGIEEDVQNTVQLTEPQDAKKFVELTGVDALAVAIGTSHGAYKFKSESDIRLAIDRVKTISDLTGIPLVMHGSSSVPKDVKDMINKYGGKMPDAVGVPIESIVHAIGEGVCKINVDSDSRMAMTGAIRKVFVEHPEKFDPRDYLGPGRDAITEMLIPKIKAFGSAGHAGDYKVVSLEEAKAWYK", "test": "qHTS Assay for Inhibitors of Fructose-1,6-bisphosphate Aldolase from Giardia Lamblia; also: nearly all actives have a fitted effect of over 55% in size", "settings": "purified Giardia FBPA; activity, negative = inhibition: at 59.6 µM (top of the series) unless noted", "outline": "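Giardia FBPA (40 nM reagent) was preincubated 10 min at RT with compound (up to 57.5 uM final), then substrate plus GAPDH/TPI/NAD/arsenate coupling system with diaphorase/resazurin was added; resorufin fluorescence (525/598 nm) was read after 20 min.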"}
{"smiles": "COc1cc(OC)c(NC(C)C(=O)NCc2ccccc2)cc1Cl", "note": "(stereo not given)", "Potency": "inconclusive: 7.06 µM [inhibitor, partial curve]"}
{"smiles": "Cc1cc(NC(=O)c2ccccc2F)nc2c1c(=O)oc1ccccc12", "activity, negative = inhibition": "inactive: 4.81%"}
{"smiles": "O=C(Nc1ccc(N2CCOCC2)c(Cl)c1)c1ccc([N+](=O)[O-])o1", "Potency": "inconclusive: 19.9 µM [inhibitor, partial curve]"}
{"smiles": "O=C1/C(=C\\c2ccc(Br)cc2)SC(=S)N1NS(=O)(=O)c1ccccc1", "Potency": "inconclusive: 25.1 µM [inhibitor, single point]"}
{"smiles": "O=C(NC1CCCCC1)c1cccnc1C(=O)O", "Potency": "active: 5.61 µM"}
{"smiles": "Nc1scc2c(C(=O)N/N=C/c3ccc(Cl)cc3)nn(-c3ccccc3)c(=O)c12", "Potency": "inconclusive: 3.15 µM [inhibitor, full curve]"}
{"smiles": "Cc1ccc(/C(O)=C2/C(=O)C(=O)N(CCN3CCOCC3)C2c2ccccn2)cc1", "note": "(stereo not given)", "Potency": "inconclusive: 12.6 µM [inhibitor, partial curve]"}
{"smiles": "COc1ccccc1CNc1ccc(N2CCCCC2)cc1", "Potency": "inconclusive: 14.1 µM [inhibitor, partial curve]"}
{"smiles": "O=C(NNC(=O)c1ccc(Cl)cc1Cl)c1cnccn1", "Potency": "active: 19.9 µM"}
{"smiles": "CC1C2=C(CC(C)(C)CC2=O)NC2=C1C(=O)CC(C)(C)C2", "activity, negative = inhibition": "inactive: 1.75%"}
{"smiles": "COCc1nnc(NC(=O)c2ccc(S(=O)(=O)N3CCOCC3)cc2)o1", "Potency": "active: 22.4 µM"}
{"smiles": "O=C(N/N=C/c1cc([N+](=O)[O-])ccc1O)c1cccc(N2CCCC2=O)c1", "Potency": "inconclusive: 20 µM [inhibitor, single point]"}
{"smiles": "CCN1C(=O)/C(=C/c2ccc(N3CCCC3)cc2)NC1=S", "activity, negative = inhibition": "inactive: -2.11%"}
{"smiles": "O=C(Nc1nnc(-c2ccc3c(c2)CCCC3)o1)C1COc2ccccc2O1", "note": "(stereo not given)", "Potency": "inconclusive: 17.7 µM [activator, single point]"}
{"smiles": "CCOC(=O)c1ccc(NC(=O)CSc2nnc(Cc3cccs3)n2C)cc1", "activity, negative = inhibition": "inactive: -1.2%"}
{"smiles": "CCC(C)NC(=O)c1ccc(N2CC3CC(C2)c2cccc(=O)n2C3)c(NC(=O)c2ccc(Br)o2)c1", "note": "(stereo not given)", "activity, negative = inhibition": "inactive: 16.6%"}
{"smiles": "NS(=O)(=O)c1ccc(CCNC/C=C/c2ccccc2)cc1", "Potency": "inconclusive: 28.2 µM [inhibitor, partial curve]"}
{"smiles": "O=C(CCSCc1cccc(F)c1)NCCc1ccccc1", "activity, negative = inhibition": "inactive: 14.6%"}
{"smiles": "Cc1ccc(NC(=O)c2ccc(OC(=S)N3CCOCC3)cc2)cc1", "activity, negative = inhibition": "inactive: 0.8%"}
{"smiles": "O=C1NN(c2ccccc2)C(=O)/C1=C\\c1ccccc1", "Potency": "inconclusive: 35.5 µM [inhibitor, single point]"}
{"smiles": "CCCN1C(=O)c2cc(C(=O)Nc3ccc(OC)c(OC)c3)ccc2C1Nc1ccc(OC)c(OC)c1", "note": "(stereo not given)", "activity, negative = inhibition": "inactive: -15.8%"}
{"smiles": "O=S(=O)(NC1CCCC1)c1cccc(S(=O)(=O)N2CCC(n3nnc4ccccc43)CC2)c1", "Potency": "inconclusive: 17.7 µM [inhibitor, partial curve]"}
{"smiles": "O=[N+]([O-])c1ncccc1Oc1nc(-c2cccnc2)nc2ccccc12", "Potency": "inconclusive: 11.2 µM [inhibitor, partial curve]"}
{"smiles": "Oc1c(CN2CCOCC2)cc(-c2ccccc2)cc1CN1CCOCC1", "activity, negative = inhibition": "inactive: 3.39%"}
{"smiles": "CCN(CC)CCN(C(=O)c1ccc(N2C(=O)CCC2=O)cc1)c1nc2cc3c(cc2s1)OCCO3", "activity, negative = inhibition": "inactive: -8.24%"}
{"smiles": "Cc1cc2nc3c(=O)n(Cc4ccccc4)c(=O)[nH]c3nc2cc1N", "Potency": "inconclusive: 4.46 µM [inhibitor, partial curve]"}
{"smiles": "O=C1NC(=S)NC(=O)C1=Cc1ccc2c(c1)CCN2CCCCl", "Potency": "inconclusive: 19.9 µM [inhibitor, single point]"}
{"smiles": "COc1ccc(N2CCN(C(=S)Nc3ccc(S(N)(=O)=O)cc3)CC2)cc1", "Potency": "inconclusive: 22.3 µM [inhibitor, single point]"}
{"smiles": "COc1ccc(-c2cc3cccc(OC)c3oc2=O)cc1", "activity, negative = inhibition": "inactive: 6.76%"}
{"smiles": "COc1ccc(-c2cc(C(F)(F)F)nc(SCC(=O)NCc3ccco3)n2)cc1OC", "activity, negative = inhibition": "inactive: 2.04%"}
{"smiles": "CN(C)c1oc(-c2ccc(OCc3ccc(Cl)cc3)cc2)nc1C#N", "Potency": "inconclusive: 31.5 µM [activator, single point]"}
{"smiles": "Cc1ccc(S(=O)(=O)NCC(=O)NCC(=O)OCc2c(F)cccc2Cl)cc1", "Potency": "inconclusive: 39.8 µM [inhibitor, single point]"}
{"smiles": "Cc1ccc(NC2=NC3(CCCC3)N=C(N)N2)c(C)c1", "activity, negative = inhibition": "inactive: 0.372%"}
{"smiles": "Cc1cnn(-c2nc(-c3ccccc3)cc(-c3ccccc3)n2)c1", "activity, negative = inhibition": "inactive: -0.716%"}
{"smiles": "COc1ccccc1N1CCN(/N=C/c2ccc(Cl)c([N+](=O)[O-])c2)CC1", "activity, negative = inhibition": "inactive: -0.972%"}
{"smiles": "COc1ccc(/C=C/C(=O)c2ccccn2)cc1", "Potency": "inconclusive: 17.7 µM [inhibitor, partial curve]"}
{"smiles": "CN1CCc2c(sc(NC(=O)C3CCCCC3)c2C(N)=O)C1", "Potency": "inconclusive: 7.94 µM [inhibitor, full curve, poor fit]"}
{"smiles": "COC(=O)CCC(=O)OC1(C)C(=O)C2=CN(CCN3CCOCC3)C(c3ccc(OC)cc3)=CC2=C(Br)C1=O", "note": "(stereo not given)", "Potency": "active: 0.561 µM"}
{"smiles": "CC(C)c1ccc(N=C2NN=C(c3cccs3)CS2)cc1", "activity, negative = inhibition": "inactive: -3.32%"}
{"smiles": "CC(C)N(CCNCc1nnc(-c2ccccc2)o1)C(C)C", "Potency": "inconclusive: 17.7 µM [inhibitor, partial curve]"}
{"smiles": "O=C(N/N=C/c1c(F)c(F)c(F)c(F)c1F)c1ccc(Cn2cc(Br)cn2)o1", "activity, negative = inhibition": "inactive: 5.94%"}
{"smiles": "O=c1c2ccccc2nc(/C=C/c2cccnc2)n1Cc1ccccc1", "activity, negative = inhibition": "inactive: -4.13%"}
{"smiles": "Cc1ccc(-c2nc(CSCC(=O)NCc3cccnc3)c(C)o2)cc1", "Potency": "inconclusive: 7.06 µM [inhibitor, single point]"}
{"smiles": "FC(F)(F)c1cccc(OCCN2CCN(Cc3ccccc3)CC2)c1", "Potency": "inconclusive: 19.9 µM [inhibitor, partial curve]"}
{"smiles": "CC(=O)N1C(=O)/C(=C2\\SC(=S)N(c3c(C)n(C)n(-c4ccccc4)c3=O)C2=O)c2ccccc21", "Potency": "inconclusive: 4.46 µM [inhibitor, full curve]"}
{"smiles": "CC(=O)Oc1cccc2c1C(=O)c1c(OC(C)=O)cc(C(=O)O)cc1C2=O", "Potency": "inconclusive: 22.3 µM [inhibitor, partial curve]"}
{"smiles": "Cc1ccc2c(c1)c1n[nH]c(=S)nc1n2CCc1ccccc1", "Potency": "inconclusive: 0.794 µM [activator, partial curve]"}
{"smiles": "O=C1CC(C(=O)Nc2ccc(C(=O)N3CCOCC3)cc2)C2(CCCCC2)O1", "note": "(stereo not given)", "activity, negative = inhibition": "inactive: 0.19%"}
{"smiles": "O=C(O)c1cc(-c2ccc(Cl)c(Cl)c2)n(-c2ccccc2)n1", "activity, negative = inhibition": "inactive: -11.6%"}
{"smiles": "CCOc1cc(N2CCOCC2)c(OCC)cc1NC(=O)CSc1ncn[nH]1", "Potency": "inconclusive: 11.2 µM [inhibitor, partial curve]"}
{"smiles": "COc1cccc(CNc2ncc(C(=O)Nc3cc(OC)c(OC)c(OC)c3)c(C)n2)c1", "activity, negative = inhibition": "inactive: -5.78%"}
{"smiles": "CCOc1ccc(OCc2ccc(C(=O)N3N=C(C(F)F)CC3(O)C(F)F)o2)cc1", "note": "(stereo not given)", "activity, negative = inhibition": "inactive: -0.0921%"}
{"smiles": "Cn1cccc1/C=C1\\SC(=S)N(NC(=O)c2cccc(Cl)c2)C1=O", "Potency": "inconclusive: 12.6 µM [inhibitor, partial curve]"}
{"smiles": "CC(C)c1ccc(NC(=O)[C@H](Cc2c[nH]c3ccccc23)NC(=O)[C@@H]2Cc3ccccc3CN2)cc1", "Potency": "inconclusive: 25.1 µM [inhibitor, single point]"}
{"smiles": "FC(F)(F)c1ccccc1CNCc1ccncc1", "Potency": "inconclusive: 28.2 µM [inhibitor, single point]"}
{"smiles": "Cc1c(/C=C2\\SC(=Nc3cccc(C(=O)O)c3)NC2=O)c2ccccc2n1C", "activity, negative = inhibition": "inactive: 18.5%"}
{"smiles": "CCOc1ccc2oc(C(=O)NC3CCN(Cc4ccccc4)CC3)c(C)c2c1", "activity, negative = inhibition": "inactive: 1.17%"}
{"smiles": "NS(=O)(=O)c1ccc(CNC(=O)c2cc(-c3cccnc3)nc3ccc(Br)cc23)cc1", "activity, negative = inhibition": "inactive: 2.21%"}
{"smiles": "CCCN(CCC)CCCNC(=S)Nc1ccc2nc(N3CCCC3)cc(C)c2c1", "Potency": "inconclusive: 15.8 µM [inhibitor, partial curve]"}
{"smiles": "CCOC(=O)c1ccccc1NC(=O)c1cn(-c2ccc(OC)cc2)c(=O)c2ccccc12", "activity, negative = inhibition": "inactive: -5.35%"}
{"smiles": "CCOC(=O)N1CCC(N2CCN(c3ccccc3)CC2)CC1", "Potency": "inconclusive: 25.1 µM [inhibitor, partial curve]"}
{"smiles": "Cc1cccc(C(=O)Nc2nnc(S(=O)(=O)N3CCOCC3)s2)c1", "Potency": "inconclusive: 39.8 µM [inhibitor, single point]"}
{"smiles": "Cc1[nH]n(-c2ccccc2)c(=O)c1N=Nc1ccc(Cl)cc1", "Potency": "inconclusive: 10 µM [inhibitor, partial curve]"}
{"smiles": "COCC(C)NCc1cccc2ccccc12", "note": "(stereo not given)", "Potency": "inconclusive: 15.8 µM [inhibitor, partial curve]"}
{"smiles": "Cc1ccccc1OCC(O)CN1CCN(CC(O)COc2ccccc2C)C(C)C1", "note": "(stereo not given)", "Potency": "active: 14.1 µM"}
{"smiles": "COc1ccccc1-c1nnc(SCC(=O)O)n1-c1ccc(C)cc1", "activity, negative = inhibition": "inactive: 10.2%"}
{"smiles": "CN1CCN(C(=S)C(=O)Nc2ccc(Br)cc2)CC1", "Potency": "active: 5 µM"}
{"smiles": "CC(=O)[C@@H]1[C@@H](C(=O)c2ccc(C)cc2)[C@]2(C(=O)Nc3ccccc32)[C@H]2C=Cc3cc(F)ccc3N12", "Potency": "inconclusive: 15.8 µM [inhibitor, single point]"}
{"smiles": "O=C(O)c1cc(-c2c[nH]c3ccccc23)nc2cc3ccccc3cc12", "activity, negative = inhibition": "inactive: -19.6%"}
{"smiles": "CC(C(=O)Nc1ccc(Cl)cc1)N1C(=O)NC2(CCCC2)C1=O", "note": "(stereo not given)", "activity, negative = inhibition": "inactive: 1.88%"}
{"smiles": "O=c1[nH]c(SCc2nc3c(cnn3-c3ccccc3)c(=O)[nH]2)nc2ccccc12", "activity, negative = inhibition": "inactive: -13.4%"}
{"smiles": "Cc1cc(NC(=O)CSc2nncc(=O)n2N)no1", "Potency": "inconclusive: 31.5 µM [inhibitor, single point]"}
{"smiles": "COc1ccc(C2C(C(=O)N3CCOCC3)CCC(=O)N2c2cc(OC)c(OC)c(OC)c2)cc1", "note": "(stereo not given)", "activity, negative = inhibition": "inactive: 0.224%"}
{"smiles": "CS(=O)(=O)c1ccccc1C(=O)Nc1nc2ccccc2[nH]1", "Potency": "inconclusive: 15.8 µM [inhibitor, partial curve]"}
{"smiles": "COC(=O)Cn1c(O)c(N=NC(=O)CNC(=O)COc2cccc(C)c2)c2ccccc21", "Potency": "inconclusive: 25.1 µM [inhibitor, partial curve]"}
